The other results are listed elsewhere or left out. Sequences were assembled here from the parent chain. Values near 0.05 are background.
B1: TEV protease; numbered along this chain (parent)
chain: MGESLFKGPRDYNPISSSICHLTNESDGHTTSLYGIGFGPFIITNKHLFRRNNGTLVVQSLHGVFKVKDTTTLQQHLVDGRDMIIIRMPKDFPPFPQKLKFREPQREERICLVTTNFQTKSMSSMVSDTSCTFPSGDGIFWKHWIQTKDGQCGSPLVSTRDGFIVGIHSASNFTNTNNYFTSVPKNFMELLTNQEAQQWVSGWRLNADSVLWGGHKVFMVKPEEPFQPVKEATQL

Variants of: B1
Test: raw area under fraction-flipped curve 0-4 h after induction (AUC4h, not background-subtracted), DNA-recorder readout of cleavage of the substrate (dimensionless); higher = more cleavage of the substrate by the protease variant
Conditions: temperature: 34 °C; time window: 0-4 h after rhamnose induction
Experimental: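 In vivo DNA recorder in E. coli TOP10(DE3) ΔrhaA at 34 °C. Each TEVp single-site mutant (parent TEVp 0) is paired with a single-site variant of the 7-mer TEVs (canonical ENLYFQ|S). The substrate sits between flexible linkers in a Bxb1-sfGFP-TEVs-SsrA fusion, so cleavage stabilises Bxb1 and speeds flipping of a recombination array, read by NGS. The value is the raw area under the fraction-flipped curve over 0-4 h after rhamnose induction (AUC4h), with ≥20 reads per time point. It is not background-subtracted; inactive controls average about 0.047.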
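Note: Bxb1 expression induced with 0.2% (w/v) L-rhamnose at OD600 near 0.5, cultures sampled hourly, flipped fraction per protease–substrate barcode pair counted by paired-end Illumina sequencing.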

| Variant | area with substrate ENLAFQS | area with substrate ENLFFQS | area with substrate ENLGFQS | area with substrate ENLHFQS | area with substrate ENLKFQS | area with substrate ENLMFQS | area with substrate ENLNFQS | area with substrate ENLQFQS | area with substrate ENLRFQS | area with substrate ENLSFQS |
| --- | --- | --- | --- | --- | --- | --- | --- | --- | --- | --- |
| Q197I | 0.0285 | 0.0926 | 0.0653 | 0.068 | 0.105 | 0.0778 | 0.088 | 0.0789 | 0.0885 | 0.0722 |
| Q197R | 0.0426 | 0.0722 | – | 0.0575 | 0.0498 | – | – | 0.0691 | 0.0754 | 0.0428 |
| W199S | 0.0698 | 0.077 | 0.0652 | 0.0646 | 0.0742 | 0.0567 | 0.0575 | – | – | 0.0605 |
| S201E | 0.0703 | 0.0877 | – | 0.0538 | 0.0702 | 0.0619 | 0.0463 | – | 0.0683 | 0.0655 |
| W203S | 0.0618 | – | – | 0.0519 | 0.0622 | – | 0.059 | – | 0.0512 | 0.0619 |
| R204P | 0.0451 | 0.127 | – | 0.0683 | – | – | 0.0722 | – | 0.0491 | – |
| L205S | 0.0571 | – | – | – | 0.0665 | – | – | – | – | – |
| L205Y | 0.0489 | 0.0781 | – | 0.0673 | – | – | 0.068 | – | 0.0594 | 0.06 |
| A207R | 0.0698 | 0.0841 | 0.0703 | – | 0.066 | – | 0.0538 | 0.0499 | 0.0668 | 0.0814 |
| S209E | 0.0807 | 0.0864 | 0.0767 | – | 0.0952 | – | 0.0557 | 0.0568 | – | – |
| S209H | 0.0598 | 0.0982 | 0.0743 | 0.0712 | 0.0812 | – | 0.0596 | 0.0766 | – | 0.0703 |
| S209N | 0.063 | – | 0.059 | – | – | – | 0.0871 | – | – | – |
| V210P | 0.052 | 0.0802 | – | – | – | – | 0.0534 | – | 0.0493 | – |
| W212S | 0.0697 | – | – | – | – | 0.0384 | – | 0.0567 | – | – |
| G213T | 0.0472 | 0.0631 | 0.0681 | 0.0795 | – | – | 0.0564 | – | 0.0615 | – |
| G214E | 0.0695 | 0.0507 | – | 0.0527 | 0.033 | – | – | – | – | 0.0661 |
| H215L | 0.0393 | 0.0665 | – | 0.057 | 0.0663 | 0.0611 | 0.0689 | 0.07 | 0.0587 | 0.0468 |
| V217E | 0.0762 | – | – | – | 0.0616 | – | – | 0.0722 | – | – |

| Variant | area with substrate ENLAFQS | area with substrate ENLFFQS | area with substrate ENLGFQS | area with substrate ENLHFQS | area with substrate ENLKFQS | area with substrate ENLMFQS | area with substrate ENLNFQS | area with substrate ENLQFQS | area with substrate ENLRFQS | area with substrate ENLSFQS |
| --- | --- | --- | --- | --- | --- | --- | --- | --- | --- | --- |
| F218V | 0.0506 | 0.062 | 0.0671 | 0.0605 | 0.0802 | – | 0.061 | 0.0707 | 0.0447 | 0.0593 |
| V220S | 0.0667 | 0.0924 | – | 0.0792 | – | – | 0.0631 | 0.0747 | 0.0657 | – |
| F226V | 0.0627 | – | 0.0759 | – | – | – | – | – | – | – |
| P228R | 0.0684 | – | 0.0626 | 0.0668 | – | – | 0.0575 | 0.0662 | – | – |
| P228W | 0 | 0.0907 | – | 0.0771 | 0.0699 | – | 0.0571 | 0.07 | – | – |
| E231I | 0.0548 | 0.0802 | 0.0741 | 0.0705 | 0.0471 | – | 0.0611 | 0.0731 | – | 0.0774 |
| T233W | 0.0533 | 0.11 | – | 0.0714 | – | – | 0.0611 | – | 0.08 | 0.0731 |
| G8L | – | 0.0783 | 0.081 | – | – | – | – | 0.0712 | 0.0721 | – |
| L22M | – | 0.0771 | 0.0804 | – | 0.0895 | – | 0.0681 | 0.0683 | 0.0716 | 0.0734 |
| H29G | – | – | – | – | – | 0.0717 | – | – | – | – |
| G35V | – | 0.0484 | – | – | 0.0597 | – | 0.0662 | 0.0201 | 0.0443 | – |
| R50W | – | 0.114 | – | – | – | – | 0.0293 | – | – | 0.085 |
| R50Y | – | 0.136 | – | 0.0776 | 0.0982 | 0.0692 | 0.0789 | 0.0652 | – | – |
| V57Q | – | 0.111 | – | – | 0.0796 | – | 0.068 | – | – | – |
| Q59R | – | 0.0889 | 0.0619 | 0.0709 | – | 0.0784 | 0.0609 | 0.0676 | 0.0777 | 0.048 |
| K66H | – | – | – | 0.0832 | 0.0791 | – | 0.0664 | – | – | 0.0593 |
| K66W | – | – | – | 0.0345 | 0.0844 | – | – | – | 0.0666 | 0.0597 |
| D69F | – | – | – | 0.0463 | – | 0.0559 | – | – | – | 0.0489 |

Same assay, conditions: temperature: 34 °C; time window: 0-4 h after rhamnose induction

| Variant | area with substrate ENLTFQS | area with substrate ENLCFQS | area with substrate ENLEFQS | area with substrate ENLVFQS | area with substrate ENLDFQS | area with substrate ENLPFQS | area with substrate ENLWFQS | area with substrate ENLIFQS | area with substrate ENLLFQS |
| --- | --- | --- | --- | --- | --- | --- | --- | --- | --- |
| Q197I | 0.0815 | – | – | – | – | – | – | – | – |
| Q197R | – | 0.0662 | 0.0455 | 0.0664 | – | – | – | – | – |
| W199S | – | – | – | – | 0.0654 | 0.0586 | – | – | – |
| S201E | 0.0723 | 0.0599 | – | 0.0765 | 0.0557 | – | 0.0594 | – | – |
| W203S | – | – | 0.0633 | 0.0438 | 0.0532 | 0.0561 | – | 0.052 | 0.0582 |
| R204P | 0.0722 | 0.0639 | – | – | – | 0.0548 | – | – | – |
| L205S | – | 0.0651 | – | – | 0.0455 | – | – | – | – |
| L205Y | – | – | 0.0623 | – | 0.0781 | 0.0679 | 0.0589 | 0.0456 | 0.0624 |
| A207R | – | – | – | – | 0.0623 | – | – | – | – |
| S209E | – | – | 0.0671 | – | 0.0715 | – | – | 0.0887 | 0.0721 |
| S209H | 0.0644 | – | 0.0663 | – | 0.0625 | – | – | 0.0869 | – |
| S209N | – | – | – | – | – | 0.0556 | – | – | – |
| V210P | – | – | – | – | 0.0642 | – | 0.0382 | – | – |
| W212S | – | 0.0463 | 0.0473 | 0.0598 | – | 0.0488 | – | – | – |
| G213T | 0.0784 | 0.0695 | 0.0618 | – | – | – | – | – | 0.0519 |
| G214E | – | 0.0623 | 0.0533 | – | 0.0697 | – | – | – | – |
| H215L | – | – | 0.0641 | 0.0575 | 0.0692 | – | – | 0.06 | 0.0513 |
| V217E | – | – | – | – | – | 0.0791 | – | – | – |

| Variant | area with substrate ENLTFQS | area with substrate ENLCFQS | area with substrate ENLEFQS | area with substrate ENLVFQS | area with substrate ENLDFQS | area with substrate ENLPFQS | area with substrate ENLWFQS | area with substrate ENLIFQS | area with substrate ENLLFQS |
| --- | --- | --- | --- | --- | --- | --- | --- | --- | --- |
| F218V | – | – | – | – | 0.0575 | 0.0477 | 0.0613 | 0.0465 | 0.0615 |
| V220S | – | 0.0557 | 0.0593 | 0.0827 | 0.0624 | – | – | – | – |
| F226V | – | – | 0.069 | – | 0.0532 | 0.0535 | 0.0858 | – | – |
| P228R | – | – | – | 0.0871 | 0.0468 | 0.058 | 0.0909 | 0.104 | – |
| E231I | 0.0814 | 0.0899 | – | 0.073 | 0.0711 | – | – | 0.044 | – |
| T233W | – | – | 0.0418 | – | 0.0375 | 0.0476 | 0.0776 | 0.0727 | 0.0858 |
| G8L | – | 0.0764 | – | – | 0.0717 | 0.0723 | – | – | – |
| L22M | – | 0.0893 | 0.0655 | – | 0.0674 | 0.0436 | 0.109 | – | 0.0717 |
| H29G | – | 0.0671 | 0.0548 | – | – | 0.0567 | – | 0.0736 | – |
| G35V | – | 0.0574 | – | – | 0.0399 | 0.0432 | 0.0408 | – | 0.0429 |
| R50W | – | 0.103 | 0.0673 | – | 0.0695 | 0.0672 | 0.0917 | 0.101 | 0.0731 |
| R50Y | – | 0.0962 | 0.0614 | 0.101 | 0.0432 | 0.0541 | – | – | – |
| V57Q | – | 0.0882 | – | – | 0.0569 | – | – | – | – |
| Q59R | 0.0677 | 0.0895 | – | – | 0.0633 | – | 0.0653 | – | – |
| K66H | – | 0.0846 | 0.0629 | – | – | – | 0.0747 | 0.106 | 0.0659 |
| K66W | – | 0.0657 | – | – | 0.065 | – | – | – | – |
| D69F | – | 0.0777 | – | – | – | 0.0572 | – | – | – |
